According to patent publication US20240024475A1 (CURE GENETICS, published 2024):

T1: recombinant human CD70 protein (Acrobiosystems: CDL-H82Q9) (human, UniProt P32970 39-193)
T1 construct: Bought from Acrobiosystems; The whole natural entry is named; also called human CD70His fusion protein; recombinant human CD70 antigen having a C-terminal human IgG Fc tag
T1 sequence (looked up): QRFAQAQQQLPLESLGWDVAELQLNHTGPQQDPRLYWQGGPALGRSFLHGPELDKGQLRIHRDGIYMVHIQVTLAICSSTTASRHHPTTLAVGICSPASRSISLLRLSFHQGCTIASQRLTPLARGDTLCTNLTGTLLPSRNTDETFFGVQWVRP

T2: CD70 on kidney cancer cell line 786-0 (expressing CD70) (human, UniProt P32970 1-193)
T2 construct: whole, on cells
T2 sequence (looked up): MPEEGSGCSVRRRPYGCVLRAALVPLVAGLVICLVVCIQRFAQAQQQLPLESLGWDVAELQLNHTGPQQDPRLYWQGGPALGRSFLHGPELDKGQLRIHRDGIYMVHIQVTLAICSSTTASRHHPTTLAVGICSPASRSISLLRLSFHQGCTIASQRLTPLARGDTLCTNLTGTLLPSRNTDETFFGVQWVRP

B1: sdAb-Fc of CD70-sdAb-1E (CD70-sdAb-1E linked at its C-terminus to a human Fc domain) (Fc fusion)
chain: EVQVVESGGGLVQAGGSLRLSCAASGFAFDDYAIGWFRQAPGKEQERVSCMSSSDGSTYYADSVKGRFTISSDNAKNTVYLQMNSLKPEDTAVYYCAAGVNYYREDGCPGALDYWGQGTQVTVSS[human IgG1 Fc with changes not listed]
notes: Expressed in HEK293 cells and purified; No linker between VHH and Fc is mentioned
B2: sdAb-Fc of CD70-sdAb-1G (CD70-sdAb-1G linked at its C-terminus to a human Fc domain) (Fc fusion)
chain: QLQLVESGGGLVQLGGSLTLSCTASGIIFNSDYVGWYRQAPGSDRELVALTSNMRTNYADSVEGRFTISRDNAKNTVYLQMNSLKPEDTAVYYCNVNRMTSYGPRDYWGQGTQVTVSS[human IgG1 Fc with changes not listed]
notes: as for B1
B3: sdAb-Fc of CD70-sdAb-3H (CD70-sdAb-3H linked at its C-terminus to a human Fc domain) (Fc fusion)
chain: QLQLVESGGGLVQPGGSLRLSCAASGNILRFNAVGWYRQAPGKQRDLVAAMAGARTNYADSVEGRFTISGNNANNTVYLQMNSLKPEDTGVYYCGADRVYGPPYEYGGRGTQVTVLS[human IgG1 Fc with changes not listed]
notes: as for B1
B4: sdAb-Fc of CD70-sdAb-L2 (CD70-sdAb-L2 linked at its C-terminus to a human Fc domain) (Fc fusion)
chain: EVQLVESGGGLVQAGGSLRLSCAASGFTVDDYVIGWFRQAPGKEHEGVSCISSNDGSTWYADSVKGRFTISSDNAKNTMYLQMNSLKPEDTAVYYCAAKYAPYGLEYWEGGMDYWGKGTLVTVSS[human IgG1 Fc with changes not listed]
notes: as for B1

What was measured:
[1] = molecular target: T1, recombinant human CD70 protein …; assay: SPR, Biacore T200, Protein A chip, sdAb-Fc against CD70 protein
Description: The C-terminus of the amino acid sequences of CD70-sdAb-1E, CD70-sdAb-1G, CD70-sdAb-3H and CD70-sdAb-L2 were respectively linked to a human Fc domain (as shown in SEQ ID NO: 94), and these 4 proteins fused with Fc were expressed in HEK293 cells. After purification, the affinity of these 4 sdAb-Fc to CD70 protein (ACRO Biosystems, CDL-H82Q9) was detected using Biacore T200 (GE) and Protein A chip (GE, Cat#29127556).

[2] = molecular target: T2, CD70 on kidney cancer cell line 786-0 …; assay: flow cytometry: percentage of positive cells, 786-O cells stained with the sdAb-Fc protein at varied concentration
[3] = molecular target: T2, CD70 on kidney cancer cell line 786-0 …; assay: as above; remark: listed apart in the source
[4] = molecular target: T2, CD70 on kidney cancer cell line 786-0 …; assay: as above; remark: listed apart in the source
[5] = molecular target: T2, CD70 on kidney cancer cell line 786-0 …; assay: as above; remark: listed apart in the source

Binder	Kd [1] [nM]	EC50 [2] [µg/mL]	EC50 [3] [µg/mL]	EC50 [4] [µg/mL]	EC50 [5] [µg/mL]
B1	0.168	14.1	–	–	–
B2	0.265	–	5.7	–	–
B3	0.3	–	–	10.8	–
B4	0.976	–	–	–	11.7

Like-named read-outs stand apart in the source and are kept apart here.
